Measured values reported in the supplement of paper PMC8728848.
This is one part of the list.

Key:
Assay in all cases: glycan array binding signal (z-score within array); higher = stronger binding
Conditions in all cases: glycan notation: IUPAC condensed, linker removed
[1] = biological target: Neu5Ac(a2-3)Gal(b1-4)GlcNAc(b1-3)Gal(b1-4)[Fuc(a1-3)]GlcNAc
Summary of the method: (§1)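 The binding signal is a Z-score computed within each array. Data were drawn from 3228 arrays in the Consortium for Functional Glycomics database, restricted to those with a known protein sequence. Scores were averaged over arrays of the same protein sequence at different concentrations or buffers, and over linkers, and negative values can be taken as non-binding.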

[2] = biological target: Neu5Ac(a2-3)Gal(b1-4)GlcNAc(b1-3)GalNAc
Summary of the method: as §1

[3] = biological target: Neu5Ac(a2-3)Gal(b1-4)GlcNAc(b1-6)[Gal(b1-3)]GalNAc
Summary of the method: as §1

[4] = biological target: Neu5Ac(a2-3)Gal(b1-4)GlcNAc(b1-6)[Neu5Ac(a2-3)Gal(b1-3)]GalNAc
Summary of the method: as §1

[5] = biological target: Neu5Ac(a2-3)Gal(b1-4)GlcNAc6S
Summary of the method: as §1

[6] = biological target: Neu5Ac(a2-3)Gal(b1-4)[Fuc(a1-3)]GlcNAc
Summary of the method: as §1

[7] = biological target: Neu5Ac(a2-3)Gal(b1-4)[Fuc(a1-3)]GlcNAc(b1-3)Gal
Summary of the method: as §1

[8] = biological target: Neu5Ac(a2-3)Gal(b1-4)[Fuc(a1-3)]GlcNAc(b1-3)Gal(b1-4)GlcNAc
Summary of the method: as §1

[9] = biological target: Neu5Ac(a2-3)Gal(b1-4)[Fuc(a1-3)]GlcNAc(b1-3)Gal(b1-4)[Fuc(a1-3)]GlcNAc(b1-3)Gal(b1-4)[Fuc(a1-3)]GlcNAc
Summary of the method: as §1

[10] = biological target: Neu5Ac(a2-3)Gal(b1-4)[Fuc(a1-3)]GlcNAc(b1-6)[Gal(b1-3)]GalNAc
Summary of the method: as §1

[11] = biological target: Neu5Ac(a2-3)Gal(b1-4)[Fuc(a1-3)]GlcNAc(b1-6)[Neu5Ac(a2-3)Gal(b1-3)]GalNAc
Summary of the method: as §1

[12] = biological target: Neu5Ac(a2-3)Gal(b1-4)[Fuc(a1-3)]GlcNAc6S
Summary of the method: as §1

[13] = biological target: Neu5Ac(a2-3)Gal6S(b1-4)GlcNAc
Summary of the method: as §1

[14] = biological target: Neu5Ac(a2-3)Gal6S(b1-4)[Fuc(a1-3)]GlcNAc
Summary of the method: as §1

Neu5Ac(a2-3)GalNAc = biological target: Neu5Ac(a2-3)GalNAc
Summary of the method: as §1

[15] = biological target: Neu5Ac(a2-3)GalNAc(b1-4)GlcNAc
Summary of the method: as §1

[16] = biological target: Neu5Ac(a2-3)[GalNAc(b1-4)]Gal(b1-4)Glc
Summary of the method: as §1

[17] = biological target: Neu5Ac(a2-3)[GalNAc(b1-4)]Gal(b1-4)GlcNAc
Summary of the method: as §1

[18] = biological target: Neu5Ac(a2-3)[Neu5Ac(a2-6)]GalNAc
Summary of the method: as §1

Neu5Ac(a2-6)Gal = biological target: Neu5Ac(a2-6)Gal
Summary of the method: as §1

Neu5Ac(a2-6)Gal(b1-4)Glc = biological target: Neu5Ac(a2-6)Gal(b1-4)Glc
Summary of the method: as §1

[19] = biological target: Neu5Ac(a2-6)Gal(b1-4)GlcNAc
Summary of the method: as §1

[20] = biological target: Neu5Ac(a2-6)Gal(b1-4)GlcNAc(b1-2)Man(a1-3)Man(b1-4)GlcNAc(b1-4)GlcNAc
Summary of the method: as §1

[21] = biological target: Neu5Ac(a2-6)Gal(b1-4)GlcNAc(b1-2)Man(a1-3)[Gal(b1-4)GlcNAc(b1-2)Man(a1-6)]Man(b1-4)GlcNAc(b1-4)GlcNAc
Summary of the method: as §1

[22] = biological target: Neu5Ac(a2-6)Gal(b1-4)GlcNAc(b1-2)Man(a1-3)[GlcNAc(b1-2)Man(a1-6)]Man(b1-4)GlcNAc(b1-4)GlcNAc
Summary of the method: as §1

[23] = biological target: Neu5Ac(a2-6)Gal(b1-4)GlcNAc(b1-2)Man(a1-3)[GlcNAc(b1-2)Man(b1-4)GlcNAc(b1-2)Man(a1-6)]Man(b1-4)GlcNAc(b1-4)GlcNAc
Summary of the method: as §1

[24] = biological target: Neu5Ac(a2-6)Gal(b1-4)GlcNAc(b1-2)Man(a1-3)[Man(a1-6)]Man(b1-4)GlcNAc(b1-4)GlcNAc
Summary of the method: as §1

[25] = biological target: Neu5Ac(a2-6)Gal(b1-4)GlcNAc(b1-2)Man(a1-3)[Neu5Ac(a2-6)Gal(b1-4)GlcNAc(b1-2)Man(a1-6)]Man(b1-4)GlcNAc(b1-4)GlcNAc
Summary of the method: as §1

[26] = biological target: Neu5Ac(a2-6)Gal(b1-4)GlcNAc(b1-2)Man(a1-6)Man(b1-4)GlcNAc(b1-4)GlcNAc
Summary of the method: as §1

[27] = biological target: Neu5Ac(a2-6)Gal(b1-4)GlcNAc(b1-2)Man(a1-6)[Gal(b1-4)GlcNAc(b1-2)Man(a1-3)]Man(b1-4)GlcNAc(b1-4)GlcNAc
Summary of the method: as §1

[28] = biological target: Neu5Ac(a2-6)Gal(b1-4)GlcNAc(b1-2)Man(a1-6)[GlcNAc(b1-2)Man(a1-3)]Man(b1-4)GlcNAc(b1-4)GlcNAc
Summary of the method: as §1

[29] = biological target: Neu5Ac(a2-6)Gal(b1-4)GlcNAc(b1-2)Man(a1-6)[Man(a1-3)]Man(b1-4)GlcNAc(b1-4)GlcNAc
Summary of the method: as §1

[30] = biological target: Neu5Ac(a2-6)Gal(b1-4)GlcNAc(b1-3)Gal(b1-3)GlcNAc
Summary of the method: as §1

[31] = biological target: Neu5Ac(a2-6)Gal(b1-4)GlcNAc(b1-3)Gal(b1-4)GlcNAc
Summary of the method: as §1

[32] = biological target: Neu5Ac(a2-6)Gal(b1-4)GlcNAc(b1-3)Gal(b1-4)GlcNAc(b1-3)Gal(b1-4)GlcNAc
Summary of the method: as §1

[33] = biological target: Neu5Ac(a2-6)Gal(b1-4)GlcNAc(b1-3)Gal(b1-4)[Fuc(a1-3)]GlcNAc(b1-3)Gal(b1-4)[Fuc(a1-3)]GlcNAc
Summary of the method: as §1

[34] = biological target: Neu5Ac(a2-6)Gal(b1-4)GlcNAc(b1-3)GalNAc
Summary of the method: as §1

[35] = biological target: Neu5Ac(a2-6)Gal(b1-4)GlcNAc6S
Summary of the method: as §1

B1: Spy0252 (Streptococcus pyogenes), Q9A1I9_STRP1 (protein)
chain: MNMKKLASLAMLGASVLGLAACGGKSQKEAGASKSDTAKTEITWWAFPVFTQEKAEDGVGTYEKKLIAAFEKANPEIKVKLETIDFTSGPEKITTAIEAGTAPDVLFDAPGRIIQYGKNGKLADLNDLFTEEFTKDVNNDKLIQASKAGDTAYMYPISSAPFYMALNKKMLKDAGVLDLVKEGWTTDDFEKVLKALKDKGYNPGSFFANGQGGDQGPRAFFANLYSSHITDDKVTKYTTDDANSIKAMTKISNWIKDGLMMNGSQYDGSADIQNFANGQTSFTILWAPAQPGIQAKLLEASKVDYLEIPFPSDDGKPELEYLVNGFAVFNNKDEQKVAASKTFIQFIADDKEWGPKNVVRTGAFPVRTSYGDLYKDKRMEKIAEWTKFYSPYYNTIDGFAEMRTLWFPMVQAVSNGDEKPEDALKAFTEKANKTIKKTQ
[1]
  glycan array binding signal (z-score): 6.21
[2]
  glycan array binding signal (z-score): -0.253
[3]
  glycan array binding signal (z-score): -0.236
[4]
  glycan array binding signal (z-score): -0.275
[5]
  glycan array binding signal (z-score): -0.268
[6]
  glycan array binding signal (z-score): -0.267
[7]
  glycan array binding signal (z-score): -0.258
[8]
  glycan array binding signal (z-score): -0.231
[9]
  glycan array binding signal (z-score): -0.264
[10]
  glycan array binding signal (z-score): -0.101
[11]
  glycan array binding signal (z-score): -0.157
[12]
  glycan array binding signal (z-score): -0.278
[13]
  glycan array binding signal (z-score): -0.264
[14]
  glycan array binding signal (z-score): -0.269
Neu5Ac(a2-3)GalNAc
  glycan array binding signal (z-score): -0.276
[15]
  glycan array binding signal (z-score): -0.272
[16]
  glycan array binding signal (z-score): -0.266
[17]
  glycan array binding signal (z-score): -0.146
[18]
  glycan array binding signal (z-score): -0.262
Neu5Ac(a2-6)Gal
  glycan array binding signal (z-score): -0.242
Neu5Ac(a2-6)Gal(b1-4)Glc
  glycan array binding signal (z-score): 2.73
[19]
  glycan array binding signal (z-score): -0.27
[20]
  glycan array binding signal (z-score): -0.272
[21]
  glycan array binding signal (z-score): -0.259
[22]
  glycan array binding signal (z-score): -0.272
[23]
  glycan array binding signal (z-score): -0.267
[24]
  glycan array binding signal (z-score): -0.242
[25]
  glycan array binding signal (z-score): -0.26
[26]
  glycan array binding signal (z-score): -0.277
[27]
  glycan array binding signal (z-score): -0.265
[28]
  glycan array binding signal (z-score): -0.234
[29]
  glycan array binding signal (z-score): -0.26
[30]
  glycan array binding signal (z-score): -0.257
[31]
  glycan array binding signal (z-score): -0.269
[32]
  glycan array binding signal (z-score): -0.255
[33]
  glycan array binding signal (z-score): -0.245
[34]
  glycan array binding signal (z-score): -0.189
[35]
  glycan array binding signal (z-score): -0.269
